Measured values reported in article PMC8006934, “C-Reactive Protein Enhances IgG-Mediated Cellular Destruction Through IgG-Fc Receptors in vitro” (Frontiers in Immunology, 2021).

Molecular target: T1, C-reactive protein (native CRP from human fluid) (human, UniProt P02741 19-224)
T1 construct: C-reactive protein, human, native protein from human fluid; The SPR methods say only 'human CRP'; the source (Sigma-Aldrich) is named in the methods of the phagocytosis assay; also called human CRP; native human CRP; source: bought: Sigma-Aldrich (native CRP from human fluid)
T1 sequence (looked up): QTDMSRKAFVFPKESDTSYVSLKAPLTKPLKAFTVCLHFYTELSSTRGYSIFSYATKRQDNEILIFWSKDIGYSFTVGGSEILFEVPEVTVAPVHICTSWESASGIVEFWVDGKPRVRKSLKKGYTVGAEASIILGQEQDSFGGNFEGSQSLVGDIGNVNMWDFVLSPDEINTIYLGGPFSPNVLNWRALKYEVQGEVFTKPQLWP
Assay: SPR; IBIS MX96 array; C-terminally biotinylated FcRs spotted at different densities (100–1 nM) on one SensEye G-streptavidin sensor, blocked with biotinylated BSA; CRP injected in 2-fold dilutions from 0.98 to 2,000 nM in 20 mM Tris, 280 mM NaCl, 5 mM CaCl2, pH 8.0; KD by equilibrium fitting to Rmax = 500
Settings: both partners purified

B1: FcγRIIIa-V158, human, C-terminally biotinylated (receptor)
chain: not shown
modifications: biotin, C-terminal
notes: FcγRIIIa (CD16a), human, polymorphic variant V158 (p.176Val), bought recombinant biotinylated protein; also called FcγRIIIa-p.176Val; source: bought: Sino Biological
Question: Does B1 bind?
Answer: binds
